Reference: publication PMC12402098, “YTHDF3 recognizes DNA N6-methyladenine and recruits ALKBH1 for 6mA removal from genomic DNA” (The EMBO Journal, 2025)
No constants are given. Whether binding was seen depends on the method and setting. For some of these results: In cells and extracts the contact can be indirect. Some results given as binding are weak or reduced against the parent protein; the word gives no strength. Where a sequence is shown, tags or fusion partners need not be part of it. Blank lines part the entries; values can stand above or below the binder they belong to.

What was measured:
ALKBH1-Flag [1] = molecular target: T1, ALKBH1-Flag (UniProt Q13686); experiment: co-IP; anti-FLAG or anti-HA antibodies and protein A/G agarose beads; transfected cells (HeLa in Fig. 4A); western blot
T1 sequence: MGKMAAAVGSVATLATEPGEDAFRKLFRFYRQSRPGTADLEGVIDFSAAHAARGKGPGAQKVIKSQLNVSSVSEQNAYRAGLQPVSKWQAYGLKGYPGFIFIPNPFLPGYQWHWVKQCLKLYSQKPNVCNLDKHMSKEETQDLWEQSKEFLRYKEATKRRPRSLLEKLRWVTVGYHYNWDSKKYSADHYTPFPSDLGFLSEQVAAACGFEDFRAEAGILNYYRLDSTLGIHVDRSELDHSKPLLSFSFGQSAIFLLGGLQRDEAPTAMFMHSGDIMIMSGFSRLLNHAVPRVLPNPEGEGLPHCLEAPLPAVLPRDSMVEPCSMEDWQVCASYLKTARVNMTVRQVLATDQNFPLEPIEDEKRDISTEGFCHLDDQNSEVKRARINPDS

ALKBH1-Flag [2] = molecular target: T1, ALKBH1-Flag; experiment: co-IP; as Fig. 4A but in the presence of DNase treatment of the complexes; HeLa cells transfected with YTHDF3-HA or ALKBH1-Flag; western blot
YTHDF3-HA [3] = molecular target: T2, YTHDF3-HA (UniProt Q7Z739); experiment: as above
T2 sequence: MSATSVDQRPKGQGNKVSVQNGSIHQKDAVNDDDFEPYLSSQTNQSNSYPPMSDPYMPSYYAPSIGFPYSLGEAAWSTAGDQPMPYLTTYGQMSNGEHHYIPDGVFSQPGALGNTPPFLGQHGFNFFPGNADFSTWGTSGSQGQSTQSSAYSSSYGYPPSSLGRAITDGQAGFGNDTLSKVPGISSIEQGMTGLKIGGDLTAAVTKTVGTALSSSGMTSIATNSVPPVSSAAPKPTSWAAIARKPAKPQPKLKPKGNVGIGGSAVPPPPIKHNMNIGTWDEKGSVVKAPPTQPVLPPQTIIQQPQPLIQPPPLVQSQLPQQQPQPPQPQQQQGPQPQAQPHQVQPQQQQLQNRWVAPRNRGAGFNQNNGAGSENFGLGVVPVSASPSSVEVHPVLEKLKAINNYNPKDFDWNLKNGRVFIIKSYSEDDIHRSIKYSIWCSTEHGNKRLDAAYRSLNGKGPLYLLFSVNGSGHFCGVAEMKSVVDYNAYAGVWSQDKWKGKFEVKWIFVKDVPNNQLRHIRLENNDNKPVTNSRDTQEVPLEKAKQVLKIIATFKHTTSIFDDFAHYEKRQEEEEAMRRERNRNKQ

YTHDF3-HA [4] = molecular target: T2, YTHDF3-HA; experiment: co-IP; anti-FLAG or anti-HA antibodies and protein A/G agarose beads; transfected cells (HeLa in Fig. 4A); western blot
YTHDF3-Flag = molecular target: T3, YTHDF3-Flag (UniProt Q7Z739); experiment: as above
T3 sequence: T2 sequence

YTHDF3-His = molecular target: T4, YTHDF3-His (UniProt Q7Z739 1-585); experiment: co-purification of coexpressed proteins on a His-tag resin; ALKBH1 and YTHDF3-His coexpressed in E. coli BL21 (DE3); complex purified from the supernatant with a His-tag protein purification kit
T4 construct: YTHDF3 inserted into pET 26b vector; pET26b would give a C-terminal His tag (surmise); also called recombinant YTHDF3; wild-type YTHDF3; source: E. coli BL21 (DE3), purified (His-tag protein purification kit); also coexpressed with ALKBH1 in E. coli, in lysate
T4 sequence (looked up): T2 sequence

binding (ALKBH1-Flag [1]): no binding
B1: YTHDF1 (protein, UniProt Q9BYJ9 1-559)
chain: MSATSVDTQRTKGQDNKVQNGSLHQKDTVHDNDFEPYLTGQSNQSNSYPSMSDPYLSSYYPPSIGFPYSLNEAPWSTAGDPPIPYLTTYGQLSNGDHHFMHDAVFGQPGGLGNNIYQHRFNFFPENPAFSAWGTSGSQGQQTQSSAYGSSYTYPPSSLGGTVVDGQPGFHSDTLSKAPGMNSLEQGMVGLKIGDVSSSAVKTVGSVVSSVALTGVLSGNGGTNVNMPVSKPTSWAAIASKPAKPQPKMKTKSGPVMGGGLPPPPIKHNMDIGTWDNKGPVPKAPVPQQAPSPQAAPQPQQVAQPLPAQPPALAQPQYQSPQQPPQTRWVAPRNRNAAFGQSGGAGSDSNSPGNVQPNSAPSVESHPVLEKLKAAHSYNPKEFEWNLKSGRVFIIKSYSEDDIHRSIKYSIWCSTEHGNKRLDSAFRCMSSKGPVYLLFSVNGSGHFCGVAEMKSPVDYGTSAGVWSQDKWKGKFDVQWIFVKDVPNNQLRHIRLENNDNKPVTNSRDTQEVPLEKAKQVLKIISSYKHTTSIFDDFAHYEKRQEEEEVVRKERQSRNKQ

binding (ALKBH1-Flag [2]): binds | binding (ALKBH1-Flag [1]): binds
B2: YTHDF3 (endogenous) (protein, UniProt Q7Z739 1-585)
chain: T2 sequence

B3: ALKBH1 (endogenous) (enzyme, UniProt Q13686 1-389)
chain: T1 sequence
binding (YTHDF3-HA [3]): binds | binding (YTHDF3-HA [4]): binds | binding (YTHDF3-Flag): binds

binding (YTHDF3-His): binds
B4: ALKBH1 (untagged, coexpressed with YTHDF3-His) (enzyme, UniProt Q13686 1-389)
chain: T1 sequence
